# Experimental data from PMC9911399, “Two distinct binding modes provide the RNA-binding protein RbFox with extraordinary sequence specificity”.
# Positions count from the first letter of the chain named. The list shows a part of the results.
# T1: RBFOX1 RRM (Homo sapiens, UniProt Q9NWB1 109-208)
# T1 sequence: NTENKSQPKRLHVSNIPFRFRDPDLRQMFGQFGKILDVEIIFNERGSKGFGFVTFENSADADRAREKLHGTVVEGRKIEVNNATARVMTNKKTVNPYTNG
# B1: AUCACCA (DNA:RNA)
# RNA: GGGAGACCGGAAUUCAGAUUGUCCAUCACCAUUAAAUCCCGUCGUAGCCACCA
# DNA 1: CAATCTGAATTCCGGTCTCCC
# DNA 2: TGGTGGCTACGACGGGATT
# B2: AGCCCUU (DNA:RNA)
# RNA: B1 RNA with U26G, A28C, C30U, A31U
# DNA 1: CAATCTGAATTCCGGTCTCCC
# DNA 2: TGGTGGCTACGACGGGATT
# B3: GUGCAAG (DNA:RNA)
# RNA: B1 RNA with A25G, C27G, A28C, C29A, C30A, A31G
# DNA 1: CAATCTGAATTCCGGTCTCCC
# DNA 2: TGGTGGCTACGACGGGATT
# B4: CGGGGAU (DNA:RNA)
# RNA: GGGAGACCGGAAUUCAGAUUGUCCCGGGGAUUUAAAUCCCGUCGUAGCCACCA
# DNA 1: CAATCTGAATTCCGGTCTCCC
# DNA 2: TGGTGGCTACGACGGGATT
# B5: UCUCAGU (DNA:RNA)
# RNA: B4 RNA with C25U, G26C, G27U, G28C, G29A, A30G
# DNA 1: CAATCTGAATTCCGGTCTCCC
# DNA 2: TGGTGGCTACGACGGGATT
# B6: UCGUCCA (DNA:RNA)
# RNA: B1 RNA with A25U, U26C, C27G, A28U
# DNA 1: CAATCTGAATTCCGGTCTCCC
# DNA 2: TGGTGGCTACGACGGGATT
# B7: GCAUCUA (DNA:RNA)
# RNA: B1 RNA with A25G, U26C, C27A, A28U, C30U
# DNA 1: CAATCTGAATTCCGGTCTCCC
# DNA 2: TGGTGGCTACGACGGGATT
# B8: CACAUGC (DNA:RNA)
# RNA: B1 RNA with A25C, U26A, C29U, C30G, A31C
# DNA 1: CAATCTGAATTCCGGTCTCCC
# DNA 2: TGGTGGCTACGACGGGATT
# B9: UGCGUGC (DNA:RNA)
# RNA: B4 RNA with C25U, G27C, G29U, A30G, U31C
# DNA 1: CAATCTGAATTCCGGTCTCCC
# DNA 2: TGGTGGCTACGACGGGATT
# B10: GAUCGUC (DNA:RNA)
# RNA: B4 RNA with C25G, G26A, G27U, G28C, A30U, U31C
# DNA 1: CAATCTGAATTCCGGTCTCCC
# DNA 2: TGGTGGCTACGACGGGATT
# B11: CAGCAAA (DNA:RNA)
# RNA: B4 RNA with G26A, G28C, G29A, U31A
# DNA 1: CAATCTGAATTCCGGTCTCCC
# DNA 2: TGGTGGCTACGACGGGATT
# B12: GUAACAG (DNA:RNA)
# RNA: B1 RNA with A25G, C27A, C30A, A31G
# DNA 1: CAATCTGAATTCCGGTCTCCC
# DNA 2: TGGTGGCTACGACGGGATT
# B13: UGUCAGU (DNA:RNA)
# RNA: B4 RNA with C25U, G27U, G28C, G29A, A30G
# DNA 1: CAATCTGAATTCCGGTCTCCC
# DNA 2: TGGTGGCTACGACGGGATT
# B14: AAGCUGU (DNA:RNA)
# RNA: B4 RNA with C25A, G26A, G28C, G29U, A30G
# DNA 1: CAATCTGAATTCCGGTCTCCC
# DNA 2: TGGTGGCTACGACGGGATT
# B15: UCAGACA (DNA:RNA)
# RNA: B1 RNA with A25U, U26C, C27A, A28G, C29A
# DNA 1: CAATCTGAATTCCGGTCTCCC
# DNA 2: TGGTGGCTACGACGGGATT
# B16: CCAUCAC (DNA:RNA)
# RNA: B4 RNA with G26C, G27A, G28U, G29C, U31C
# DNA 1: CAATCTGAATTCCGGTCTCCC
# DNA 2: TGGTGGCTACGACGGGATT
# B17: GGUGGAC (DNA:RNA)
# RNA: B4 RNA with C25G, G27U, U31C
# DNA 1: CAATCTGAATTCCGGTCTCCC
# DNA 2: TGGTGGCTACGACGGGATT
# B18: UAGGCGC (DNA:RNA)
# RNA: B4 RNA with C25U, G26A, G29C, A30G, U31C
# DNA 1: CAATCTGAATTCCGGTCTCCC
# DNA 2: TGGTGGCTACGACGGGATT
# B19: ACGAACU (DNA:RNA)
# RNA: B1 RNA with U26C, C27G, C29A, A31U
# DNA 1: CAATCTGAATTCCGGTCTCCC
# DNA 2: TGGTGGCTACGACGGGATT
# B20: AUAGCGU (DNA:RNA)
# RNA: B1 RNA with C27A, A28G, C30G, A31U
# DNA 1: CAATCTGAATTCCGGTCTCCC
# DNA 2: TGGTGGCTACGACGGGATT
# B21: GCGGGAG (DNA:RNA)
# RNA: B4 RNA with C25G, G26C, U31G
# DNA 1: CAATCTGAATTCCGGTCTCCC
# DNA 2: TGGTGGCTACGACGGGATT
# B22: CCUGCUG (DNA:RNA)
# RNA: B4 RNA with G26C, G27U, G29C, A30U, U31G
# DNA 1: CAATCTGAATTCCGGTCTCCC
# DNA 2: TGGTGGCTACGACGGGATT
# B23: CCUCUGA (DNA:RNA)
# RNA: B1 RNA with A25C, U26C, C27U, A28C, C29U, C30G
# DNA 1: CAATCTGAATTCCGGTCTCCC
# DNA 2: TGGTGGCTACGACGGGATT
# B24: UUAUGGU (DNA:RNA)
# RNA: B4 RNA with C25U, G26U, G27A, G28U, A30G
# DNA 1: CAATCTGAATTCCGGTCTCCC
# DNA 2: TGGTGGCTACGACGGGATT
# B25: ACGGGGU (DNA:RNA)
# RNA: B4 RNA with C25A, G26C, A30G
# DNA 1: CAATCTGAATTCCGGTCTCCC
# DNA 2: TGGTGGCTACGACGGGATT
# B26: CGGGGUU (DNA:RNA)
# RNA: B4 RNA with A30U
# DNA 1: CAATCTGAATTCCGGTCTCCC
# DNA 2: TGGTGGCTACGACGGGATT
# B27: CGAUGUG (DNA:RNA)
# RNA: B4 RNA with G27A, G28U, A30U, U31G
# DNA 1: CAATCTGAATTCCGGTCTCCC
# DNA 2: TGGTGGCTACGACGGGATT
# B28: AAGUUUC (DNA:RNA)
# RNA: B1 RNA with U26A, C27G, A28U, C29U, C30U, A31C
# DNA 1: CAATCTGAATTCCGGTCTCCC
# DNA 2: TGGTGGCTACGACGGGATT
# B29: UUAAAGG (DNA:RNA)
# RNA: B1 RNA with A25U, C27A, C29A, C30G, A31G
# DNA 1: CAATCTGAATTCCGGTCTCCC
# DNA 2: TGGTGGCTACGACGGGATT
# B30: CUGACUA (DNA:RNA)
# RNA: B1 RNA with A25C, C27G, C30U
# DNA 1: CAATCTGAATTCCGGTCTCCC
# DNA 2: TGGTGGCTACGACGGGATT
# B31: CUAUACU (DNA:RNA)
# RNA: B1 RNA with A25C, C27A, A28U, C29A, A31U
# DNA 1: CAATCTGAATTCCGGTCTCCC
# DNA 2: TGGTGGCTACGACGGGATT
# Molecular target: T1, RBFOX1 RRM
# Test: EMSA; HiTS-Eq, 1 nM pool, 10 min; buffer printed only for the single-RNA assays: 10 mM Tris pH 7.5, 150 mM NaCl, 3.4 mM EDTA, 0.001% NP-40, 30 C
# Conditions: tags: His6 N-terminal (pET28a); label: 5' 32P
# Outline: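 A pool of RNA with 7 randomized nucleotides, 5′-radiolabelled and with DNA-annealed flanks, was equilibrated at 1 nM for 10 min in 50 µL with purified RbFox RRM, wild type or mutant, across increasing protein concentrations. Free RNA was separated by 8% native PAGE, excised, reverse-transcribed, barcoded by PCR and sequenced. Relative association constants were obtained from read-count changes of each RNA species versus the control reaction and normalised to the cognate motif.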
row,Binder,binding signal
1,B1,0.00177 KA relative to UGCAUGU
2,B2,0.00485 KA relative to UGCAUGU
3,B3,0.0274 KA relative to UGCAUGU
4,B4,0.0184 KA relative to UGCAUGU
5,B5,0.0101 KA relative to UGCAUGU
6,B6,0.0076 KA relative to UGCAUGU
7,B7,0.0126 KA relative to UGCAUGU
8,B8,0.00424 KA relative to UGCAUGU
9,B9,0.0465 KA relative to UGCAUGU
10,B10,0.0199 KA relative to UGCAUGU
11,B11,0.00133 KA relative to UGCAUGU
12,B12,0.0117 KA relative to UGCAUGU
13,B13,0.0169 KA relative to UGCAUGU
14,B14,0.00977 KA relative to UGCAUGU
15,B15,0.000675 KA relative to UGCAUGU
16,B16,0.0034 KA relative to UGCAUGU

row,Binder,binding signal
1,B17,0.00935 KA relative to UGCAUGU
2,B18,0.0153 KA relative to UGCAUGU
3,B19,0.00476 KA relative to UGCAUGU
4,B20,0.00628 KA relative to UGCAUGU
5,B21,0.0158 KA relative to UGCAUGU
6,B22,0.0192 KA relative to UGCAUGU
7,B23,0.0177 KA relative to UGCAUGU
8,B24,0.0118 KA relative to UGCAUGU
9,B25,0.0238 KA relative to UGCAUGU
10,B26,0.0339 KA relative to UGCAUGU
11,B27,0.015 KA relative to UGCAUGU
12,B28,0.0115 KA relative to UGCAUGU
13,B29,0.00496 KA relative to UGCAUGU
14,B30,0.00689 KA relative to UGCAUGU
15,B31,0.00396 KA relative to UGCAUGU
